# According to PMC5892938:
# The list shows a part of the results. The source does not settle which construct or isoform was used.
# Biological target: GST-SBP-ILF3 (Homo sapiens) (UniProt Q12906)
# Experiment: targeted RNA Bind-n-Seq
# Details: RBNS binding buffer: 25 mM Tris pH 7.5, 150 mM KCl, 3 mM MgCl2, 0.1% Tween, 0.5 mg/mL BSA, 1 mM DTT; 27 nM protein, 750 pM RNA pool; temperature not stated; high values mean tight binding; sequences stand for … in GGGUAAAAGCGAGGUGAA…CGGGACAAGUAUUAUGGG
row,Sequence,binding signal (log2 fold change)
1,GUGGUUGGUGUUGGCCUCUAACACCGACCG [gtspaired],-0.783
2,UUUUUUUUUUGAGACGGGCGCCGUCUUCUG [tttttgagapaired],0.784
3,UUUUUUUUUUGAGACUGAUCCAGUCUCCAG [tttttgagapaired],0.213
4,UUUUUUUUUUGAGAGCGGAGCGUUCUCCAG [tttttgagapaired],0.328
5,GGUGUUGGUGUUGGCUCCUAACACCAGCGC [gtspaired],-0.291
6,UUUUUUUUUUGAGAUGGAUCCUAUCUCCGG [tttttgagapaired],0.0251
7,UUUUUUUUUUGAGAUCGAUGCGAUCUCCGG [tttttgagapaired],0.284
8,UUUUUUUUUUGAGACGGCAACCGUCUCCAG [tttttgagapaired],0.47
9,UUUUUUUUUUGAGAGGGGUACCCUCUCCGG [tttttgagapaired],0.136
10,GGUUGGUGUGUUGGACCCUAACACACCAGC [gtspaired],-0.572
11,UUUUUUUUUUGAGAUCGAUGCGAUCUCCUG [tttttgagapaired],0.512
12,GUUGUGUGUGUUGGACCCUAACACACGCAG [gtspaired],-0.252
13,UUUUUUUUUUGAGACUGCUACAGUCUUCUG [tttttgagapaired],0.525
14,UUUUUUUUUUGAGAUCGAUGCGAUCUCCAG [tttttgagapaired],0.121
15,GGUGGUGGUGUUGGAGCCUAACACCGCCGC [gtspaired],-0.234
16,GGUGGUGGUGUUGGAUUCUAACACCAUCGC [gtspaired],0.0762
17,UUUUUUUUUUGAGACCGGGGCGGUCUCCGG [tttttgagapaired],0.552
18,GGUUGUGGUGUUGGACCCUAACACCGCGAC [gtspaired],-0.215
19,GGUGGUUGUGUUGGCAUCUAACACAGCUAC [gtspaired],-0.703
20,UUUUUUUUUUGAGAGGGCGACCCUUUCCAG [tttttgagapaired],0.412
21,GGUUGUUGUGUUGGCACCUAACACAGCAAC [gtspaired],-0.412
22,GUGUGGUGUGUUGGUGUCUAACACACUACA [gtspaired],-0.342
23,UUUUUUUUUUGAGAGCGGAACGUUCUCCAG [tttttgagapaired],-0.0713
24,UUUUUUUUUUGAGACGGAGGCUGUCUCCAG [tttttgagapaired],1.16

row,Sequence,binding signal (log2 fold change)
1,GUGGUGUGUGUUGGCGCCUAACACAUACUA [gtspaired],-0.354
2,UUUUUUUUUUGAGAGGGCAACCCUCUCCUG [tttttgagapaired],0.581
3,UUUUUUUUUUGAGAUGGAAACUAUCUCCAG [tttttgagapaired],0.0357
4,UUUUUUUUUUGAGAGCGAGGCGUUCUCCGG [tttttgagapaired],0.465
5,UUUUUUUUUUGAGAACGUAUCGUUCUUCUA [tttttgagapaired],-0.138
6,UUUUUUUUUUGAGAGCGAAUCGUUCUCCGG [tttttgagapaired],0.0736
7,GGUGGUUGUGUUGGAUCCUAACACAGCCGC [gtspaired],-0.0842
8,UUUUUUUUUUGAGAUCGUAUCGAUCUCCAG [tttttgagapaired],0.0317
9,GUGUGUUGUGUUGGAUUCUAACACAGCACA [gtspaired],0.237
10,UUUUUUUUUUGAGAUGGCAUCCAUUUCCAG [tttttgagapaired],0.212
11,GGUGUGUGUGUUGGCUUCUAACACACGCGC [gtspaired],-1.14
12,UUUUUUUUUUGAGACGGACACCGUCUCCUG [tttttgagapaired],0.62
13,UUCUCUCUUCCUCCUAGGGAGGAGGGGAGA [ctspaired],-0.249
14,GGUGUUGGUGUUGGCAUCUAACACCAGCGC [gtspaired],-1.04
15,UUUUUUUUUUGAGACUGCGGCAGUUUCCAG [tttttgagapaired],0.601
16,GUGUGGUGUGUUGGAUUCUAACACACCGCG [gtspaired],-0.567
17,UUUUUUUUUUGAGAACGGCGCGUUCUCCGG [tttttgagapaired],0.349
18,UUUUUUUUUUGAGAUGGGUCCUAUCUCCUA [tttttgagapaired],0.559
19,GUUGGUGGUGUUGGACCCUAACACCGCCAG [gtspaired],-0.268
20,UUUUUUUUUUGAGAGGGGAUCCUUCUCCAG [tttttgagapaired],0.106
21,UUUUUUUUUUGAGACCGGGUCGGUUUCCUA [tttttgagapaired],0.464
22,UUUUUUUUUUGAGAUCGUAACGAUCUCCUG [tttttgagapaired],0.379
23,GGUUGUGGUGUUGGUGCCUAACACCGCAGC [gtspaired],-0.6
24,UUUUUUUUUUGAGACGGUAUCCGUCUCCAG [tttttgagapaired],0.307

row,Sequence,binding signal (log2 fold change)
1,GUGUGGUGUGUUGGUUCCUAACACACCGCG [gtspaired],-0.355
2,UUUUUUUUUUGAGAUGGUACCCAUCUCCAG [tttttgagapaired],0.155
3,UUUUUUUUUUGAGAACGGUCCGUUCUCCGG [tttttgagapaired],0.723
4,UUUUUUUUUUGAGAGCGAUUCGUUCUCCGG [tttttgagapaired],-0.11
5,UUUUUUUUUUGAGAUGGUAUCUAUCUCCGG [tttttgagapaired],0.162
6,UUCUCUCUUCCUCCGCCGGAGGAGGGGAGA [ctspaired],-0.393
7,GUGGUGUGUGUUGGCCUCUAACACACGCCA [gtspaired],-0.377
8,UUUUUUUUUUGAGACGGUAGCCGUCUUCUG [tttttgagapaired],0.675
9,GGUGUGUGUGUUGGCGCCUAACACACGCGC [gtspaired],-0.447
10,GUGUGUGGUGUUGGACCCUAACACCAUACA [gtspaired],-0.122
11,GUGUGUUGUGUUGGUCCCUAACACAGCACA [gtspaired],-0.928
12,UUUUUUUUUUGAGAUGGUAGCUAUCUCCUG [tttttgagapaired],0.478
13,UUUUUUUUUUGAGACUGACUCAGUCUUCUG [tttttgagapaired],0.181
14,UUUUUUUUUUGAGAACGAAUCGUUCUCCAG [tttttgagapaired],-0.258
15,GUGUGUUGUGUUGGAAUCUAACACAGCGCG [gtspaired],-0.608
16,GUGUGGUGUGUUGGCGUCUAACACAUCACG [gtspaired],-0.624
17,UUUUUUUUUUGAGAACGGGGCGUUCUUCUG [tttttgagapaired],0.66
18,GUGUGUUGUGUUGGUCCCUAACACAACGCG [gtspaired],-0.604
19,UUUUUUUUUUGAGAUGGGUGCCAUCUCCGG [tttttgagapaired],0.369
20,GUGGUGUGUGUUGGUCUCUAACACAUACUA [gtspaired],-0.852
21,UUUUUUUUUUGAGAUGGGGUCCAUUUCCAG [tttttgagapaired],0.63
22,GUGUGUUGUGUUGGCGUCUAACACAACACG [gtspaired],-0.496
23,UUUUUUUUUUGAGAGCGGUGCGUUCUCCGG [tttttgagapaired],0.332
24,UUUUUUUUUUGAGACUGAGACAGUCUCCUA [tttttgagapaired],0.701

row,Sequence,binding signal (log2 fold change)
1,UUUUUUUUUUGAGAUGGAGCCCAUCUCCAG [tttttgagapaired],0.542
2,GUGGUGUGUGUUGGAGUCUAACACACGCCG [gtspaired],-0.332
3,UUUUUUUUUUGAGAGCGAGACGCUCUCCGG [tttttgagapaired],0.224
4,UUUUUUUUUUGAGACCGCUCCGGUCUUCUA [tttttgagapaired],0.849
5,GGUUGGUGUGUUGGUAUCUAACACAUCAGC [gtspaired],-0.801
6,UUUUUUUUUUGAGAUGGUAGCCAUCUCCAG [tttttgagapaired],0.351
7,GGUGGUGGUGUUGGUGUCUAACACCAUCGC [gtspaired],-0.62
8,UUUUUUUUUUGAGAGUGUGACAUUCUCCGG [tttttgagapaired],0.291
9,GUUGGUGGUGUUGGCUUCUAACACCAUCAA [gtspaired],-0.271
10,GUGUGUUGUGUUGGUGCCUAACACAGCACG [gtspaired],-0.508
11,UUUUUUUUUUGAGAGGGAAUCCCUCUCCGG [tttttgagapaired],-0.0222
12,UUUUUUUUUUGAGACCGACACGGUUUCCGG [tttttgagapaired],0.553
13,UUUUUUUUUUGAGACGGUGUCCGUCUCCGG [tttttgagapaired],0.755
14,UUUUUUUUUUGAGACCGGGACGGUCUCCUG [tttttgagapaired],0.844
15,UUUUUUUUUUGAGACGGCUGCCGUCUCCUG [tttttgagapaired],1.06
16,UUUUUUUUUUGAGAGCGGGCCGUUCUCCAG [tttttgagapaired],0.486
17,GUGUGGUGUGUUGGUCCCUAACACAUCGCG [gtspaired],-0.55
18,UUUUUUUUUUGAGAUGGUGACCAUCUCCGG [tttttgagapaired],0.23
19,GUGUGUGGUGUUGGAGCCUAACACCGCACG [gtspaired],-0.444
20,UUUUUUUUUUGAGAGCGAUCCGUUCUCCAG [tttttgagapaired],0.277
21,UUUUUUUUUUGAGAGUGAAGCACUCUCCGG [tttttgagapaired],0.0251
22,GUGUGGUGUGUUGGACCCUAACACAUCGCG [gtspaired],-0.332
